In test [1] the target is MED12 (endogenous, human cells) (human (endogenous in MCF-7 and HeLa)), Q93074. The test is described as follows: co-IP; HeLa whole cell lysates; reciprocal IP with IgG or antibodies to MED12, CDK8, MED4, MED30 and CARM1; Western blot for CARM1 or mediator subunits. The settings on record: remark: other sources report otherwise.
The target in test [2] is MED12 (endogenous, MEFs) (mouse (endogenous in MEFs)) (UniProt A2AGH6). Description: co-IP; whole cell extracts of CARM1 WT (+/+) and KO (-/-) MEFs; IP with anti-MED12, Western blot for mediator subunits. (In western blotting, separated proteins are transferred to a membrane and probed.)

Sequences of proteins named here, by UniProt entry; tags and fusion partners are left off.
UniProt A2AGH6: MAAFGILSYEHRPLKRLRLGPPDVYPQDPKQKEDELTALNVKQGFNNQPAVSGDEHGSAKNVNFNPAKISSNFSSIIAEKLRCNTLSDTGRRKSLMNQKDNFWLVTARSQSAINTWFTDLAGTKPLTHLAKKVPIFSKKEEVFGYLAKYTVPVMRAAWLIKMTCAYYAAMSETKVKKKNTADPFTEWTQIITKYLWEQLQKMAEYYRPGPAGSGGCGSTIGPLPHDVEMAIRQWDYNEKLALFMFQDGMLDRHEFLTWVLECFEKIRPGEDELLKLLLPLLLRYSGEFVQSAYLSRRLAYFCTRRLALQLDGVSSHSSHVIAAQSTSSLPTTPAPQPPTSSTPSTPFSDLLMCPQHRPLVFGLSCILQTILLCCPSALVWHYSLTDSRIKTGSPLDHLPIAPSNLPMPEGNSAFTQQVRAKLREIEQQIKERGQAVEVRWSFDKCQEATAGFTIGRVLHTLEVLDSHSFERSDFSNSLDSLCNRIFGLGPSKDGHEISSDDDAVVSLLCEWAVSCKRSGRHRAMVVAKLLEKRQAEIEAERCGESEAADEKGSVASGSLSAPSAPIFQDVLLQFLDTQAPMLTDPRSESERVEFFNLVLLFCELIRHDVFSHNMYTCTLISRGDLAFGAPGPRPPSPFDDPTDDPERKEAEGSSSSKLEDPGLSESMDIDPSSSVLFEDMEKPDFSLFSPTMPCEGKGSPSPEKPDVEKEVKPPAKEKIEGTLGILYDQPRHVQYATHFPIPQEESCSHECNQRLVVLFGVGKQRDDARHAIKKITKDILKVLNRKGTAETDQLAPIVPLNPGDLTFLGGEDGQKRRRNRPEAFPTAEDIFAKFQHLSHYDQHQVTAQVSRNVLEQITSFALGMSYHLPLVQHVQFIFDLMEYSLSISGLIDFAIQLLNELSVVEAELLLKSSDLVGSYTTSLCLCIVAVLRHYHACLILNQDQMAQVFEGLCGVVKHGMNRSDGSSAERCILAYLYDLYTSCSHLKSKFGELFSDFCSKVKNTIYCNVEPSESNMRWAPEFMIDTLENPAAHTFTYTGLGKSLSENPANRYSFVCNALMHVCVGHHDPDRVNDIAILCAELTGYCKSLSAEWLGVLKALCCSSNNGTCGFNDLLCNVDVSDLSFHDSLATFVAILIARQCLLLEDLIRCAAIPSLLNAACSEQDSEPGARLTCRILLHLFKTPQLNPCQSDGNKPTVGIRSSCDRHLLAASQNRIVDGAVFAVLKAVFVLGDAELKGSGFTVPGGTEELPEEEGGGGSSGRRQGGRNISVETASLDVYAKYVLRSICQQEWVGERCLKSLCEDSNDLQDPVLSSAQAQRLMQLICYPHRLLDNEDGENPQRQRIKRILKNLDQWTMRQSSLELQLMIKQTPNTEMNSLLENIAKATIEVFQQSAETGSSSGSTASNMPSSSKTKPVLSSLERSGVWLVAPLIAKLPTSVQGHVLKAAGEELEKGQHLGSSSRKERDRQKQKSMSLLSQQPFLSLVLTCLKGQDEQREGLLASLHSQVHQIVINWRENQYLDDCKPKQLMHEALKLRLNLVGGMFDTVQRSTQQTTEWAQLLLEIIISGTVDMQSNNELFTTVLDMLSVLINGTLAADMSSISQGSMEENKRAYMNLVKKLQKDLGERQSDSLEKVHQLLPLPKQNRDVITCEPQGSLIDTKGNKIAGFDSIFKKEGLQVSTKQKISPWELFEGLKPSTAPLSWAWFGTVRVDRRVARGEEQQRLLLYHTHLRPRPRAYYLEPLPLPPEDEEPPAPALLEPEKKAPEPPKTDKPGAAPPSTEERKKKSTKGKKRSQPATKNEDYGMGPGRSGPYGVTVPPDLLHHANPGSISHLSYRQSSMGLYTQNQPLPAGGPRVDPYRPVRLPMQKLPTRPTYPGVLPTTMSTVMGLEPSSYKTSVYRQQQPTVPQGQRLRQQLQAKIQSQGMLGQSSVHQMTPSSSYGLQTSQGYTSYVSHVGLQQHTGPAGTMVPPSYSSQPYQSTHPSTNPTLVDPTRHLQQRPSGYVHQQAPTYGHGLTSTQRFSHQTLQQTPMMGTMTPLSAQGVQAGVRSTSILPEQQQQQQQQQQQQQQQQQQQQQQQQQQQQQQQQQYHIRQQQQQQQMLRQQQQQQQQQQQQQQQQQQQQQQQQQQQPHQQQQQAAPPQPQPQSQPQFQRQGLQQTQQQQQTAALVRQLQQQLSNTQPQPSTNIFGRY

No constants are given. Whether binding was seen depends on the method and setting. Binding seen in cells or lysates may run through a third protein. Some entries that bind do so weakly or less than the wild type.

B1: CARM1 (endogenous, HeLa), Q86X55 1-608 (enzyme)
chain: MAAAAAAVGPGAGGAGSAVPGGAGPCATVSVFPGARLLTIGDANGEIQRHAEQQALRLEVRAGPDSAGIALYSHEDVCVFKCSVSRETECSRVGKQSFIITLGCNSVLIQFATPNDFCSFYNILKTCRGHTLERSVFSERTEESSAVQYFQFYGYLSQQQNMMQDYVRTGTYQRAILQNHTDFKDKIVLDVGCGSGILSFFAAQAGARKIYAVEASTMAQHAEVLVKSNNLTDRIVVIPGKVEEVSLPEQVDIIISEPMGYMLFNERMLESYLHAKKYLKPSGNMFPTIGDVHLAPFTDEQLYMEQFTKANFWYQPSFHGVDLSALRGAAVDEYFRQPVVDTFDIRILMAKSVKYTVNFLEAKEGDLHRIEIPFKFHMLHSGLVHGLAFWFDVAFIGSIMTVWLSTAPTEPLTHWYQVRCLFQSPLFAKAGDTLSGTCLLIANKRQSYDISIVAQVDQTGSKSSNLLDLKNPFFRYTGTTPSPPPGSHYTSPSENMWNTGSTYNLSSGMAVAGMPTAYDLSSVIASGSSVGHNNLIPLANTGIVNHTHSRMGSIMSTGIVQGSSGAQGSGGGSTSAHYAVNSQFTMGGPAISMASPMSIPTNTMHYGS
For B1, the binding result in test [1] is on record as “no binding”.

B2: CDK8 (endogenous, MEFs) (protein, UniProt Q8R3L8 1-464)
chain: MDYDFKVKLSSERERVEDLFEYEGCKVGRGTYGHVYKAKRKDGKDDKDYALKQIEGTGISMSACREIALLRELKHPNVISLLKVFLSHADRKVWLLFDYAEHDLWHIIKFHRASKANKKPVQLPRGMVKSLLYQILDGIHYLHANWVLHRDLKPANILVMGEGPERGRVKIADMGFARLFNSPLKPLADLDPVVVTFWYRAPELLLGARHYTKAIDIWAIGCIFAELLTSEPIFHCRQEDIKTSNPYHHDQLDRIFNVMGFPADKDWEDIKKMPEHSTLMKDFRRNTYTNCSLIKYMEKHKVKPDSKAFHLLQKLLTMDPIKRITSEQAMQDPYFLEDPLPTSDVFAGCQIPYPKREFLTEEEPDEKGDKKTQQQQQGNNHTNGTGHPGNQDSGHAQGPPLKKVRVVPPTTTSGGLIMTSDYQRSNPHAAYPNPGPSTSQPQSSMGYSATSQQPPQYSHQTHRY
In the case of B2, in test [2], the binding entry is reported as “binds”.

B3: MED30 (endogenous, MEFs) (protein, UniProt Q9CQI9 1-178)
chain: MSTPPLAPTGMASGPFGGPQAQQAAREVNTATLCRIGQETVQDIVYRTMEIFQLLRNMQLPNGVTYHTGTYQDRLTKLQDHLRQLSILFRKLRLVYDKCNENCGGMDPIPVEQLIPYVDEDGSKNDDRAGPPRFASEERREIVEVNKKLKQKNQQLKQIMDQLRNLIWDINAMLAMRN
For the molecule B3, the binding entry in test [2] is listed as “binds”.

These data come from publication PMC6238599.
